Structures are written as SMILES.

The text below walks through data of patent US9873709B2 (priority 2013, dated 2018).

In the test the target is isolated recombinant JAK1 kinase domain (Homo sapiens (Human), UniProt P23458). To be noted: read-out: JAK1 Ki; isolated recombinant JAK1 kinase domain, 25 μM ATP.
What is called Ki is the dissociation constant of the complex between target and ligand, obtained from inhibition or displacement. Regarding `Cc1ccc(C2CCCN(C(=O)c3ccc(Nc4nc5c(C6=CCN(C(=O)CCC(F)(F)F)CC6)cccn5n4)cc3)C2)nc1` (stereo not drawn) [Example 2-50, 4,4,4-tri fluoro-1-[4-[2-[4-[3-(5-methyl-2-pyridyl)piperidine-1-carbonyl]anilino]-[1,2,4]triazolo[1,5-a]pyridin-8-yl]-3,6-dihydro-2H-pyridin-1-yl]butan-1-one], the Ki is 1.21 nM. Take `CN1CCC(N(C)C(=O)c2ccc(Nc3nc4c(C5=CCN(CC#N)CC5)cccn4n3)cc2)CC1` [Example 2-52, 4-[[8-[1-(cyanomethyl)-3,6-dihydro-2H-pyridin-4-yl]-[1,2,4]triazolo[1,5-a]pyridin-2-yl]amino]-N-methyl-N-(1-methyl-4-piperidyl)benzamide]: the Ki came out at 6.19 nM.

For `COC1CC(C(=O)N2CC=C(c3cccn4nc(Nc5ccc(C(=O)N(C)C6CCN(C)CC6)cc5)nc34)CC2)C1` (stereo not drawn) [Example 2-53, 4-[[8-[1-(3-methoxycyclobutanecarbonyl)-3,6-dihydro-2H-pyridin-4-yl]-[1,2,4]triazolo[1,5-a]pyridin-2-yl]amino]-N-methyl-N-(1-methyl-4-piperidyl)benzamide], the Ki is 15.3 nM.

For `CN1CCC(N(C)C(=O)c2ccc(Nc3nc4c(C5=CCN(C(=O)CC(C)(C)C)CC5)cccn4n3)cc2)CC1` [Example 2-54, 4-[[8-[1-(3,3-dimethylbutanoyl)-3,6-dihydro-2H-pyridin-4-yl]-[1,2,4]triazolo[1,5-a]pyridin-2-yl]amino]-N-methyl-N-(1-methyl-4-piperidyl)benzamide], the Ki came to 3.29 nM.

Turning to `CCOC(=O)N1CC=C(c2cccn3nc(Nc4ccc(C(=O)N5CC(NC)C5)cc4)nc23)CC1` [Example 2-55, Ethyl 4-[2-[4-[3-(methylamino)azetidine-1-carbonyl]anilino]-[1,2,4]triazolo[1,5-a]pyridin-8-yl]-3,6-dihydro-2H-pyridine-1-carboxylate], the Ki worked out at 1.75 nM. Next, `CCOC(=O)N1CC=C(c2cccn3nc(Nc4ccc(C(=O)NCCCN5CCOCC5)cc4)nc23)CC1` [Example 2-56, ethyl 4-[2-[4-(3-morpholinopropylcarbamoyl)anilino]-[1,2,4]triazolo[1,5-a]pyridin-8-yl]-3,6-dihydro-2H-pyridine-1-carboxylate]: 1.42 nM; `CCOC(=O)N1CC=C(c2cccn3nc(Nc4ccc(C(=O)NCCN5CCN(C)CC5)cc4)nc23)CC1` [Example 2-57, ethyl 4-[2-[4-[2-(4-methylpiperazin-1-yl)ethylcarbamoyl]anilino]-[1,2,4]triazolo[1,5-a]pyridin-8-yl]-3,6-dihydro-2H-pyridine-1-carboxylate]: 2.75 nM; `CCOC(=O)N1CC=C(c2cccn3nc(Nc4ccc(C(=O)NC5CN(C)C5)cc4)nc23)CC1` [Example 2-58, ethyl 4-[2-[4-[(1-methylazetidin-3-yl)carbamoyl]anilino]-[1,2,4]triazolo[1,5-a]pyridin-8-yl]-3,6-dihydro-2H-pyridine-1-carboxylate]: 2.69 nM.

On to `CCOC(=O)N1CC=C(c2cccn3nc(Nc4ccc(C(=O)N(C)CCc5ccccn5)cc4)nc23)CC1` [Example 2-59, ethyl 4-[2-[4-[methyl-[2-(2-pyridyl)ethyl]carbamoyl]anilino]-[1,2,4]triazolo[1,5-a]pyridin-8-yl]-3,6-dihydro-2H-pyridine-1-carboxylate], for which the Ki turned out to be 2.39 nM. Take `CCOC(=O)N1CC=C(c2cccn3nc(Nc4ccc(C(=O)NC5CCN(C)CC5)cc4)nc23)CC1` [Example 2-60, ethyl 4-[2-[4-[(1-methyl-4-piperidyl)carbamoyl]anilino]-[1,2,4]triazolo[1,5-a]pyridin-8-yl]-3,6-dihydro-2H-pyridine-1-carboxylate]: the Ki amounted to 1.29 nM. Turning to `CCOC(=O)N1CC=C(c2cccn3nc(Nc4ccc(C(=O)N(C)CC5CCCN(C)C5)cc4)nc23)CC1` (stereo not drawn) [Example 2-61, ethyl 4-[2-[4-[methyl-[(1-methyl-3-piperidyl)methyl]carbamoyl]anilino]-[1,2,4]triazolo[1,5-a]pyridin-8-yl]-3,6-dihydro-2H-pyridine-1-carboxylate], the Ki was found to be 3.64 nM. Next, `CCOC(=O)N1CC=C(c2cccn3nc(Nc4ccc(C(=O)N5CCC(c6ccncc6)C5)cc4)nc23)CC1` (stereo not drawn) [Example 2-62, ethyl 4-[2-[4-[3-(4-pyridyl)pyrrolidine-1-carbonyl]anilino]-[1,2,4]triazolo[1,5-a]pyridin-8-yl]-3,6-dihydro-2H-pyridine-1-carboxylate]: 1.09 nM; `CCOC(=O)N1CC=C(c2cccn3nc(Nc4ccc(C(=O)N5CCC(N6CC(C)OC(C)C6)CC5)cc4)nc23)CC1` (stereo not drawn) [Example 2-63, ethyl 4-[2-[4-[4-(2,6-dimethylmorpholin-4-yl)piperidine-1-carbonyl]anilino]-[1,2,4]triazolo[1,5-a]pyridin-8-yl]-3,6-dihydro-2H-pyridine-1-carboxylate]: 2.84 nM. Next, `CCOC(=O)N1CC=C(c2cccn3nc(Nc4ccc(C(=O)N5CCN(CCN6CCOCC6)CC5)cc4)nc23)CC1` [Example 2-64, ethyl 4-[2-[4-[4-(2-morpholinoethyl)piperazine-1-carbonyl]anilino]-[1,2,4]triazolo[1,5-a]pyridin-8-yl]-3,6-dihydro-2H-pyridine-1-carboxylate]: 2.77 nM; `CCOC(=O)N1CC=C(c2cccn3nc(Nc4ccc(C(=O)N(C)CC5CCN(C(C)C)C5)cc4)nc23)CC1` (stereo not drawn) [Example 2-65, ethyl 4-[2-[4-[(1-isopropylpyrrolidin-3-yl)methyl-methyl-carbamoyl]anilino]-[1,2,4]triazolo[1,5-a]pyridin-8-yl]-3,6-dihydro-2H-pyridine-1-carboxylate]: 2.57 nM. For `CCOC(=O)N1CC=C(c2cccn3nc(Nc4ccc(C(=O)N5CCC(N6CCOCC6)C5)cc4)nc23)CC1` (stereo not drawn) [Example 2-66, ethyl 4-[2-[4-(3-morpholinopyrrolidine-1-carbonyl)anilino]-[1,2,4]triazolo[1,5-a]pyridin-8-yl]-3,6-dihydro-2H-pyridine-1-carboxylate], the inhibition constant (Ki) stood at 2.41 nM. Next, `CCOC(=O)N1CC=C(c2cccn3nc(Nc4ccc(C(=O)N5CCCC5c5ccc(C)cn5)cc4)nc23)CC1` (stereo not drawn) [Example 2-67, ethyl 4-[2-[4-[2-(5-methyl-2-pyridyl)pyrrolidine-1-carbonyl]anilino]-[1,2,4]triazolo[1,5-a]pyridin-8-yl]-3,6-dihydro-2H-pyridine-1-carboxylate]: 2.94 nM. Take `CCOC(=O)N1CC=C(c2cccn3nc(Nc4ccc(C(=O)N5CC6(CCN(C)C6)C5)cc4)nc23)CC1` [Example 2-68, ethyl 4-[2-[4-(7-methyl-2,7-diazaspiro[3.4]octane-2-carbonyl)anilino]-[1,2,4]triazolo[1,5-a]pyridin-8-yl]-3,6-dihydro-2H-pyridine-1-carboxylate]: the Ki came out at 1.12 nM.

Regarding `CCOC(=O)N1CC=C(c2cccn3nc(Nc4ccc(C(=O)N[C@H]5CN6CCC5CC6)cc4)nc23)CC1` [Example 2-69, ethyl 4-[2-[4-[[(3R)-quinuclidin-3-yl]carbamoyl]anilino]-[1,2,4]triazolo[1,5-a]pyridin-8-yl]-3,6-dihydro-2H-pyridine-1-carboxylate], the Ki is 4.1 nM. Next, `CCOC(=O)N1CC=C(c2cccn3nc(Nc4ccc(C(=O)N5Cc6cccnc6C5)cc4)nc23)CC1` [Example 2-70, ethyl 4-[2-[4-(5,7-dihydropyrrolo[3,4-b]pyridine-6-carbonyl)anilino]-[1,2,4]triazolo[1,5-a]pyridin-8-yl]-3,6-dihydro-2H-pyridine-1-carboxylate]: 1.94 nM.

Regarding `CCOC(=O)N1CC=C(c2cccn3nc(Nc4ccc(C(=O)N5CC6CC5(CN)C6)cc4)nc23)CC1` [Example 2-71, ethyl 4-[2-[4-[4-(aminomethyl)-3-azabicyclo[2.1.1]hexane-3-carbonyl]anilino]-[1,2,4]triazolo[1,5-a]pyridin-8-yl]-3,6-dihydro-2H-pyridine-1-carboxylate], the Ki was determined as 6.04 nM.

Take `CCOC(=O)N1CC=C(c2cccn3nc(Nc4ccc(C(=O)N5C[C@@H]6C[C@]6(N)C5)cc4)nc23)CC1` [Example 2-73, ethyl 4-[2-[4-[(1S,5R)-5-amino-3-azabicyclo[3.1.0]hexane-3-carbonyl]anilino]-[1,2,4]triazolo[1,5-a]pyridin-8-yl]-3,6-dihydro-2H-pyridine-1-carboxylate]: the Ki was determined as 2.58 nM.

Regarding `CCOC(=O)N1CC=C(c2cccn3nc(Nc4ccc(C(=O)N5CC(N)C5)cc4)nc23)CC1` [Example 2-74, ethyl 4-[2-[4-(3-aminoazetidine-1-carbonyl)anilino]-[1,2,4]triazolo[1,5-a]pyridin-8-yl]-3,6-dihydro-2H-pyridine-1-carboxylate], the Ki is 0.82 nM.

For the molecule `CCOC(=O)N1CC=C(c2cccn3nc(Nc4ccc(C(=O)N5CCCC6(CCNCC6)C5)cc4)nc23)CC1` [Example 2-75, ethyl 4-[2-[4-(2,9-diazaspiro[5.5]undecane-2-carbonyl)anilino]-[1,2,4]triazolo[1,5-a]pyridin-8-yl]-3,6-dihydro-2H-pyridine-1-carboxylate], the Ki worked out at 8.93 nM. With `CCOC(=O)N1CC=C(c2cccn3nc(Nc4ccc(C(=O)N5CCCC5CN)cc4)nc23)CC1` (stereo not drawn) [Example 2-76, ethyl 4-[2-[4-[2-(aminomethyl)pyrrolidine-1-carbonyl]anilino]-[1,2,4]triazolo[1,5-a]pyridin-8-yl]-3,6-dihydro-2H-pyridine-1-carboxylate], the inhibitory constant (Ki) was determined as 5.08 nM.

Turning to `CCOC(=O)N1CC=C(c2cccn3nc(Nc4ccc(C(=O)N5CC6(CNC6)C5)cc4)nc23)CC1` [Example 2-77, ethyl 4-[2-[4-(2,6-diazaspiro[3.3]heptane-2-carbonyl)anilino]-[1,2,4]triazolo[1,5-a]pyridin-8-yl]-3,6-dihydro-2H-pyridine-1-carboxylate], the Ki is 0.72 nM. As to `CCOC(=O)N1CC=C(c2cccn3nc(Nc4ccc(C(=O)N5CCC6(CCNC6)C5)cc4)nc23)CC1` (stereo not drawn) [Example 2-78, ethyl 4-[2-[4-(2,7-diazaspiro[4.4]nonane-2-carbonyl)anilino]-[1,2,4]triazolo[1,5-a]pyridin-8-yl]-3,6-dihydro-2H-pyridine-1-carboxylate], the Ki stood at 1.36 nM.
